75 compounds from the supplement of paper PMC6135742 can be followed below.

Molecules are shown by their SMILES. Counter-ions that a name gives are not always drawn. ± gives the standard deviation of the averaged measurements. The full ranking holds about 2,600 compounds; the median of “MBP+ mature oligodendrocyte number relative to DMSO vehicle control” is about -0.34, and the highest 2% start at about 13. The list shows a part of the results. A value given as a limit tells only on which side of the number the result lay.
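Also: 10 µM single dose with 3-day oligodendrocyte differentiation.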

This assay concerns jimpy (Plp1 jimpy) mouse iPSC-derived oligodendrocyte progenitor cells. Description: MBP+ mature oligodendrocyte number relative to DMSO vehicle control (SDs above negative control mean); higher = more surviving jimpy oligodendrocytes (rescue). The conditions noted are these: 10 µM; 3 days.
For the compound `C[C@](N)(Cc1ccc(O)c(O)c1)C(=O)O` [L-alpha-Methyl DOPA], the “MBP+ mature oligodendrocyte number” value is -0.127. The result for `COc1cc2c(c(OC)c1OC)-c1c(cc3c(c1OC)OCO3)CC(C)C(C)C2` (stereo not given) [Schisandrin B (Sch B)] reads 1.06; that for `Fc1ccc(CN(C2=NCCN2)c2c(Cl)cccc2Cl)cc1` [IMID-4F hydrochloride], -3.79.

As to `CCc1c2c(nc3ccc(O)cc13)-c1cc3c(c(=O)n1C2)COC(=O)[C@]3(O)CC`, the “MBP+ mature oligodendrocyte number” value is less than -6.35. To `CCOC(=O)O[C@]1(C(=O)OCCl)CC[C@H]2[C@@H]3CCC4=CC(=O)C=C[C@]4(C)[C@H]3[C@@H](O)C[C@@]21C` [Loteprednol etabonate] belongs -0.377; to `CCc1cc2c(cc1N1CCC(N3CCOCC3)CC1)C(C)(C)c1[nH]c3cc(C#N)ccc3c1C2=O`, -2.2. To `O=C(O)C(=O)O.[NH-][C@@H]1CCCC[C@H]1[NH-].[Pt+2]` [Oxaliplatin] belongs less than -6.7; to `Cc1ccc(NC(=O)c2ccc(CN3CCN(C)CC3)cc2)cc1Nc1nccc(-c2cccnc2)n1` [Imatinib (STI571)], -4.36. To `Cc1ccc(NC(=O)c2ccc(CN3CCN(C)CC3)cc2)cc1Nc1nccc(-c2cccnc2)n1` [Imatinib Mesylate (STI571)] belongs -5.56. As to `CC(C)C(=O)Oc1ccc(CO)cc1[C@H](CCN(C(C)C)C(C)C)c1ccccc1` [Fesoterodine Fumarate], the “MBP+ mature oligodendrocyte number” value is -2.46. The result for `Cc1nn(-c2ccccc2)c(C)c1C=NN1CCN(Cc2ccccc2)CC1` reads 14.2 ± 1.6; that for `Oc1cc2c(c(Cl)c1O)CCNCC2c1ccccc1` (racemic) [(±)-6-Chloro-PB hydrobromide], -0.64; that for `CCCn1c(=O)[nH]c(=O)c2[nH]cnc21` [3-n-Propylxanthine], -0.99. To `CCOc1nc2cccc(C(=O)OCc3oc(=O)oc3C)c2n1Cc1ccc(-c2ccccc2-c2noc(=O)[nH]2)cc1` [Azilsartan Medoxomil] belongs 0.819; to `OC[C@H]1O[C@@H](n2cnc3c(NC4CCCC4)ncnc32)[C@H](O)[C@@H]1O` [N6-Cyclopentyladenosine], -0.865; to `C[N+](C)(C)CC=O` [Betaine aldehyde chloride], -0.786.

Turning to `C#CCN[C@@H]1CCc2ccccc21` [Rasagiline Mesylate], the “MBP+ mature oligodendrocyte number” value is -0.0525. The result for `Cn1c(=O)[nH]c2ncn(C)c2c1=O` [1,7-Dimethylxanthine] reads -0.91.

`COc1cc(OC2CCN(C)CC2)ccc1Nc1ncc2c(n1)n(C1CCCC1)c(=O)n2C`: the “MBP+ mature oligodendrocyte number” value was -4.66. As for `C1COC(NC(C2CC2)C2CC2)=N1` [Rilmenidine hemifumarate], the “MBP+ mature oligodendrocyte number” value was found to be 0.431. The result for `COc1ccc(NS(=O)(=O)c2sc3ccc(Cl)cc3c2C)cc1N1CCNCC1` reads -4.9; that for `Nc1n[n+]([O-])c2ccccc2[n+]1[O-]` [Tirapazamine], -2.44.

With `CCCN1CCCC[C@H]1C(=O)Nc1c(C)cccc1C` [Ropivacaine HCl], the “MBP+ mature oligodendrocyte number” value came out at 7.

As to `Cc1ccc(S(=O)(=O)N[C@@H](Cc2ccccc2)C(=O)CCl)cc1` [N-p-Tosyl-L-phenylalanine chloromethyl ketone], the “MBP+ mature oligodendrocyte number” value stood at 0.289. Consider `CC(C)(OCc1nn(Cc2ccccc2)c2ccccc12)C(=O)O` [Bindarit], for which the “MBP+ mature oligodendrocyte number” value was 1.53. To `Cc1cccc(-c2[nH]c(C(C)(C)C)nc2-c2ccc3c(c2)OCO3)n1` belongs less than -4.81; to `CC(NC(=O)c1ccccc1/N=C/c1c(O)ccc2ccccc12)c1ccccc1` (stereo not given) [Sirtinol], 2.25. To `CCN(C(=O)c1c(O)c2c(Cl)cccc2n(C)c1=O)c1ccccc1` [Laquinimod] belongs 1.45; to `CN1CC(=O)N2[C@H](c3ccc4c(c3)OCO4)c3[nH]c4ccccc4c3C[C@@H]2C1=O` [Tadalafil], 1.42. To `CC(C)NCC(O)COc1ccc(CCOCC2CC2)cc1` (stereo not given) [Betaxolol] belongs 9.08. As for `CC(C)NCC(O)COc1ccc(CCOCC2CC2)cc1` (stereo not given) [Betaxolol hydrochloride], the “MBP+ mature oligodendrocyte number” value amounted to 0.0385. To `Cc1c(C(=O)NN2CCCCC2)nn(-c2ccc(Cl)cc2Cl)c1-c1ccc(I)cc1` belongs -5.61; to `CCc1nc(N)nc(N)c1-c1ccc(Cl)cc1` [Pyrimethamine], 49. On to `CCN(CC)CCNC(=O)c1cc(Cl)c(N)cc1OC` [Metoclopramide hydrochloride], for which the “MBP+ mature oligodendrocyte number” value worked out at 0.304. To `NCCCNCCCCNCCCN` [Spermine tetrahydrochloride] belongs 0.824; to `CN(C)C/C=C(/c1ccc(Br)cc1)c1cccnc1` [Zimelidine dihydrochloride], -2.93; to `CCOc1ccc2ccccc2c1C(=O)N[C@@H]1C(=O)N2[C@@H]1SC(C)(C)[C@@H]2C(=O)O` [Nafcillin Sodium], 5.81. To `Cn1cnc2c1c(=O)[nH]c(=O)n2C` [Theobromine] belongs 0.416 ± 0.13. For `CC1=NN(c2ccccc2)C(=O)C1` [Edaravone], the “MBP+ mature oligodendrocyte number” value was -1.29. `O=C(N[C@H](CO)[C@H](O)c1ccc([N+](=O)[O-])cc1)C(Cl)Cl` [Chloramphenicol]: the “MBP+ mature oligodendrocyte number” value is -0.287. To `O=C(O)CCNC(=O)c1ccccc1` [Betamipron] belongs 0.491; to `CCC[C@@H]1C[C@@H](C(=O)N[C@@H]([C@H]2O[C@H](SC)[C@H](O)[C@@H](O)[C@H]2O)[C@H](C)Cl)N(C)C1` [Clindamycin HCl], -0.276; to `CCC[C@@H]1C[C@@H](C(=O)N[C@@H]([C@H]2O[C@H](SC)[C@H](O)[C@@H](O)[C@H]2O)[C@H](C)Cl)N(C)C1` [Clindamycin], -1.17. As to `CO[C@H]1/C=C\C=C(/C)C(=O)NC2=CC(=O)C(NCCN(C)C)=C(C[C@@H](C)C[C@H](OC)[C@H](O)[C@@H](C)/C=C(\C)[C@@H]1OC(N)=O)C2=O` [17-DMAG (Alvespimycin) HCl], the “MBP+ mature oligodendrocyte number” value was less than -6.7. To `C=C1/C(=C\C=C2/CCC[C@]3(C)[C@@H]([C@H](C)CCCC(C)C)CC[C@@H]23)C[C@@H](O)C[C@@H]1O` [Alfacalcidol] belongs -6.61; to `CCN(CC)CCOC(=O)c1cc(Cl)c(N)cc1OC` [SDZ-205,557 hydrochloride], 0.0387; to `NC/C=C/C(=O)O` [(E)-4-amino-2-butenoic acid], 2.72. As for `CC(=O)N[C@@H](Cc1c[nH]c2ccccc12)C(=O)OCc1cc(C(F)(F)F)cc(C(F)(F)F)c1`, the “MBP+ mature oligodendrocyte number” value is -0.0401. The result for `CCN(c1nc(N)c(C(=O)NC(=N)N)nc1Cl)C(C)C` [5-(N-Ethyl-N-isopropyl)amiloride] reads -1.53. The result for `O=C(O)Cc1c[nH]c2ccc(O)cc12` [5-Hydroxyindolacetic acid] reads 0.973; that for `CN(C)CCC=C1c2ccccc2COc2ccccc21` [Doxepin hydrochloride], -3.53; that for `CC(C)[N+](C)(CCOC(=O)C1c2ccccc2Oc2ccccc21)C(C)C` [Propantheline bromide], 5.14. The result for `CN1CCC[C@@H]1Cc1c[nH]c2ccc(CCS(=O)(=O)c3ccccc3)cc12` [Eletriptan HBr] reads 0.58; that for `CN1CCC[C@@H]1Cc1c[nH]c2ccc(CCS(=O)(=O)c3ccccc3)cc12` [Eletriptan hydrobromide], 1.13. In the case of `COc1ccccc1Oc1c(NS(=O)(=O)c2ccc(C(C)(C)C)cc2)nc(-c2ncccn2)nc1OCCO` [Bosentan Hydrate], the “MBP+ mature oligodendrocyte number” value was found to be 0.342. The result for `C[S+]([O-])c1ccc(-c2nc(-c3ccc(F)cc3)c(-c3ccncc3)[nH]2)cc1` (stereo not given) reads -6.35; that for `O=C(/C=C/c1ccc(O)cc1)CC(=O)/C=C/c1ccc(O)cc1` [Bisdemethoxycurcumin], 0.659; that for `COc1cc2c(Oc3ccc(NC(=O)C4(C(=O)Nc5ccc(F)cc5)CC4)cc3F)ccnc2cc1OCCCN1CCOCC1`, less than -6.7. To `O.O=[Si]=O.O=[Si]=O.O=[Si]=O.O=[Si]=O.[O]=[Mg].[O]=[Mg].[O]=[Mg]` belongs -1.01; to `NS(=O)(=O)c1cc2c(cc1Cl)NC(C(Cl)Cl)NS2(=O)=O` (stereo not given) [Trichlormethiazide], -1.46. The result for `CN[C@@H]1[C@H](O)[C@H](NC)[C@H]2O[C@@]3(O)C(=O)C[C@@H](C)O[C@H]3O[C@@H]2[C@H]1O` [Spectinomycin HCl] reads 2.24.

On to `NC(=O)c1cnc(N[C@@H]2CCCC[C@@H]2N)nc1Nc1cccc(-n2nccn2)c1`, for which the “MBP+ mature oligodendrocyte number” value is -4.64. The result for `CN[C@H](CC(=O)O)C(=O)O` [N-Methyl-D-aspartic acid] reads -0.99; that for `Cc1onc(-c2ccccc2Cl)c1C(=O)N[C@@H]1C(=O)N2[C@@H]1SC(C)(C)[C@@H]2C(=O)O` [Cloxacillin Sodium], -1.12; that for `C#Cc1cccc(Nc2ncnc3cc(OCCOC)c(OCCOC)cc23)c1` [Erlotinib HCl (OSI-744)], -6.26. To `COc1ccc(Cn2ccc3ccc(C(=O)NO)cc32)cc1` belongs -2.18; to `Cn1c(=O)c2[nH]c(-c3ccccc3)nc2n(C)c1=O` [1,3-Dimethyl-8-phenylxanthine], 0.108. To `COC(=O)C1=CO[C@@H](O[C@@H]2O[C@H](CO)[C@@H](O)[C@H](O)[C@H]2O)[C@@H]2C(CO)=CC[C@H]12` [Geniposide] belongs 2.24; to `Cc1cc(C)c(CNC(=O)c2cc(-c3ccc(CN4CCOCC4)cc3)cc3c2cnn3C2CCCC2)c(=O)[nH]1`, 30.2. On to `OC[C@H]1NC[C@H](O)[C@@H](O)[C@@H]1O` [1-Deoxynojirimycin hydrochloride], for which the “MBP+ mature oligodendrocyte number” value stood at 1.03. The result for `CC1(C)O[C@H]2CC(=O)OC[C@]23[C@H]2CC[C@@]4(C)[C@H](c5ccoc5)OC(=O)[C@H]5O[C@]54[C@]2(C)C(=O)C[C@@H]13` [Limonin] reads 1.18.

As for `Cc1c(-c2ccccc2)oc2c(C(=O)OCCN3CCCCC3)cccc2c1=O` [Flavoxate HCl], the “MBP+ mature oligodendrocyte number” value stood at 1.84. Regarding `CCCCCCOC(=O)NC(=N)c1ccc(NCc2nc3cc(C(=O)N(CCC(=O)OCC)c4ccccn4)ccc3n2C)cc1` [Dabigatran Etexilate], the “MBP+ mature oligodendrocyte number” value was less than -3.97. To `Cc1cc(Nc2ncc3cc(-c4c(Cl)cccc4Cl)c(=O)n(C)c3n2)ccc1F` belongs -3.22; to `COc1ccc(O)cc1` [Mequinol], 2.18.
